Assay [1] deals with fungal (fACC2) (UniProt Q00955). As to conditions: read-out: fACC2 (in vitro ACC2 Inhibition Assay, IC50), ADP-Glo, 5 nM ACC2, 20 μM ATP, 20 μM acetyl-CoA.
Assay [2] concerns C. parapsilosis. Briefly: Antifungal Activity Assay (broth microtiter MIC), C. parapsilosis. Type of assay: cell-based, Candida parapsilosis. The settings on record: Lodderomyces parapsilosis, ATCC22019, 48 h, ATCC 22019, 3 replicates, MIC recorded at 48 h, read-out: MIC, C. parapsilosis ATCC 22019. How it is done: (§1) Compounds of the present invention were evaluated in an Antifungal Activity Assay. An exemplary procedure for the assay, which measures the susceptibility of various Candida species to antifungal compounds, follows. Compounds to be tested (including fluconazole and amphotericin B) were dissolved in DMSO to obtain a solution having a concentration of 1 mg/mL. These stock solutions were sterile filtered using a 0.22 um nylon syringe filter, then diluted in sterile water to achieve a final concentration of 128 μg/mL.
(§2) All species were grown from frozen stock by directly plating on to freshly prepared Sabouraud Dextrose agar (BD, Difco) and incubated overnight in ambient air at 35° C. for 24 h. A direct suspension was prepared in RPMI 1640+MOPS (Lonza, Biowhittaker) by taking individual colonies from the overnight cultures using sterile swabs soaked in sterile saline. The concentration of the suspension was determined using pre-determined standard curves. These suspensions were then diluted down to 5×10^3 CFU/mL to achieve a final concentration of 2.5×10^3 CFU/mL once added to the microtiter plate as per CLSI guidelines (M27-A3, Vol. 28 No. 14).
(§3) Broth microtiter MIC challenge plates were prepared following CLSI guidelines (M27-A3, Vol. 28 No. 14). The original CLSI guidelines focused on reading Candida MICs after 48 h of incubation. As reading after only 24 h offers a clear advantage of patient care, QC limits are being established for all drugs at 24 h. That being said there are no known interpretive breakpoints for amphotericin B at 24 h and the current fluconazole interpretive breakpoints are based on a 48 h reading. The MICs for the test compounds were recorded at 48 h. All MIC determinations were achieved by visually comparing the growth found in the antibiotic challenged wells to that of the growth control.

Assay [3] deals with Collectotrichum graminicola (Cg). The assay is described as follows: Growth inhibition assay of fungal pathogens, Cg. Type of assay: cell-based. As to conditions: 48 h, Collectotrichum graminicola, read-out: Concentration at 90% Inhibition Cg. How it is done: (§4) Compounds of the present invention were evaluated in a growth inhibition assay to determine the ability to control the growth of fungal pathogens, such as Botrtyis cinerea (Bc), Collectotrichum graminicola (Cg), Diplodia maydis (Dm), Fusarium moniliforme (Fm), Fusarium virguliforme (Fv), Phytophthora capsici (Pc), Rhizoctonia solani (Rs), and Septoria tritici (St).
(§5) Compounds to be tested were dissolved in DMSO at 2.5 mg/ml to produce compound stock solutions (“stocks”). Stocks were diluted with DMSO by a five-fold dilution in a 96-well stock plate, and two sets of final concentrations of 50, 10, and 2 ppm or 2, 0.4, and 0.08 ppm were obtained in vitro. A set of positive controls was also prepared, with various concentrations of Soraphen (2, 0.4, and 0.08 ppm), Metalaxyl (1.1, 0.22, and 0.04 ppm), and Metconazole (2, 0.4, and 0.08 ppm or 0.2, 0.04, and 0.008 ppm) after the five-fold dilutions. Negative controls on each plate included 2% DMSO, water, and a blank (media+2% DMSO).
(§6) Fungal spores were isolated from previously sub-cultured plates of Botrtyis cinerea (Bc), Collectotrichum graminicola (Cg), Diplodia maydis (Dm), Fusarium moniliforme (Fm), Fusarium virguliforme (Fv), Phytophthora capsici (Pc), and Septoria tritici (St). The isolated spores were diluted to individual concentrations with a 17% V8 liquid media. For Rhizoctonia solani (Rs) and Pythium irregulare, 1.5 mm mycelial plugs were used in place of spores and/4 Potato Dextrose Broth (PDB) was used for dilution. The spore concentrations and plug sizes were based on growth curves generated at 48 hours for each pathogen.
(§7) In a second 96-well plate, the spores or mycelial plugs, media, diluted compound solutions, and controls were combined. Once the compound was added, a true final concentration of compound in each well was measured by an OD600 reading, which adjusted for any compound precipitation that might have occurred in the well. Plate readings were repeated at both 24 and 48 hours. The blank negative control was used as a background subtraction. Additional visual ratings were performed at both 24 and 48 hours for checking on precipitation and confirming efficacy. Visual and OD600 ratings of the compounds at 48 hours were compared to the 2% DMSO negative control, and the percent of pathogen growth inhibition was determined based on those values.

Assay [4] relates to Diplodia maydis (Dm). The assay is described as follows: Growth inhibition assay of fungal pathogens, Dm. Type of assay: cell-based. As to conditions: Stenocarpella maydis, 48 h, Diplodia maydis, read-out: Concentration at 90% Inhibition Dm. How it is done: as §4, §5, §6, §7
Assay [5] relates to C. albicans. The assay is described as follows: Antifungal Activity Assay (broth microtiter MIC), C. albicans. As to conditions: Candida albicans, ATCC90028, 48 h, ATCC 90028, 3 replicates, MIC recorded at 48 h, read-out: MIC, C. albicans ATCC 90028. Type of assay: cell-based. How it is done: as §1, §2, §3
In assay [6] the test system is C. krusei. The assay is described as follows: Antifungal Activity Assay (broth microtiter MIC), C. krusei. The settings on record: Pichia kudriavzevii, ATCC6258, 48 h, ATCC 6258, 3 replicates, MIC recorded at 48 h, read-out: MIC, C. krusei ATCC 6258. Type of assay: cell-based, Candida krusei. How it is done:
as §1, §2, §3

Assay [7] relates to Fusarium virguliforme (Fv). Briefly: Growth inhibition assay of fungal pathogens, Fv. Type of assay: cell-based. As to conditions: 48 h, read-out: Concentration at 90% Inhibition Fv. How it is done:
as §4, §5, §6, §7

The test system of assay [8] is Botrtyis cinerea (Bc). Briefly: Growth inhibition assay of fungal pathogens, Bc. Type of assay: cell-based. As to conditions: 48 h, Botrtyis cinerea, read-out: Concentration at 90% Inhibition Bc. How it is done:
as §4, §5, §6, §7

The test system of assay [9] is Fusarium moniliforme (Fm). Briefly: Growth inhibition assay of fungal pathogens, Fm. Type of assay: cell-based. The settings on record: Fusarium verticillioides, 48 h, Fusarium moniliforme, read-out: Concentration at 90% Inhibition Fm. How it is done: as §4, §5, §6, §7
The test system of assay [10] is Septoria tritici (St). The assay is described as follows: Growth inhibition assay of fungal pathogens, St. Type of assay: cell-based. As to conditions: Zymoseptoria tritici, 48 h, Septoria tritici, read-out: Concentration at 90% Inhibition St. How it is done:
as §4, §5, §6, §7

The test system of assay [11] is Phytophthora capsici (Pc). Briefly: Growth inhibition assay of fungal pathogens, Pc. Type of assay: cell-based. As to conditions: 48 h, read-out: Concentration at 90% Inhibition Pc. How it is done: as §4, §5, §6, §7
Setting [12] is: growth inhibition at 48 hours vs 2% DMSO control.
Setting [13] is: growth inhibition vs 2% DMSO control at 48 hours.

Values after ≈ are worked out from the molar mass of the structure shown. Where two headings read alike, the source gives them in different places. Where only a bound is given, the exact number is not on record here.

Sequence of UniProt Q00955 (Q00955 whole entry): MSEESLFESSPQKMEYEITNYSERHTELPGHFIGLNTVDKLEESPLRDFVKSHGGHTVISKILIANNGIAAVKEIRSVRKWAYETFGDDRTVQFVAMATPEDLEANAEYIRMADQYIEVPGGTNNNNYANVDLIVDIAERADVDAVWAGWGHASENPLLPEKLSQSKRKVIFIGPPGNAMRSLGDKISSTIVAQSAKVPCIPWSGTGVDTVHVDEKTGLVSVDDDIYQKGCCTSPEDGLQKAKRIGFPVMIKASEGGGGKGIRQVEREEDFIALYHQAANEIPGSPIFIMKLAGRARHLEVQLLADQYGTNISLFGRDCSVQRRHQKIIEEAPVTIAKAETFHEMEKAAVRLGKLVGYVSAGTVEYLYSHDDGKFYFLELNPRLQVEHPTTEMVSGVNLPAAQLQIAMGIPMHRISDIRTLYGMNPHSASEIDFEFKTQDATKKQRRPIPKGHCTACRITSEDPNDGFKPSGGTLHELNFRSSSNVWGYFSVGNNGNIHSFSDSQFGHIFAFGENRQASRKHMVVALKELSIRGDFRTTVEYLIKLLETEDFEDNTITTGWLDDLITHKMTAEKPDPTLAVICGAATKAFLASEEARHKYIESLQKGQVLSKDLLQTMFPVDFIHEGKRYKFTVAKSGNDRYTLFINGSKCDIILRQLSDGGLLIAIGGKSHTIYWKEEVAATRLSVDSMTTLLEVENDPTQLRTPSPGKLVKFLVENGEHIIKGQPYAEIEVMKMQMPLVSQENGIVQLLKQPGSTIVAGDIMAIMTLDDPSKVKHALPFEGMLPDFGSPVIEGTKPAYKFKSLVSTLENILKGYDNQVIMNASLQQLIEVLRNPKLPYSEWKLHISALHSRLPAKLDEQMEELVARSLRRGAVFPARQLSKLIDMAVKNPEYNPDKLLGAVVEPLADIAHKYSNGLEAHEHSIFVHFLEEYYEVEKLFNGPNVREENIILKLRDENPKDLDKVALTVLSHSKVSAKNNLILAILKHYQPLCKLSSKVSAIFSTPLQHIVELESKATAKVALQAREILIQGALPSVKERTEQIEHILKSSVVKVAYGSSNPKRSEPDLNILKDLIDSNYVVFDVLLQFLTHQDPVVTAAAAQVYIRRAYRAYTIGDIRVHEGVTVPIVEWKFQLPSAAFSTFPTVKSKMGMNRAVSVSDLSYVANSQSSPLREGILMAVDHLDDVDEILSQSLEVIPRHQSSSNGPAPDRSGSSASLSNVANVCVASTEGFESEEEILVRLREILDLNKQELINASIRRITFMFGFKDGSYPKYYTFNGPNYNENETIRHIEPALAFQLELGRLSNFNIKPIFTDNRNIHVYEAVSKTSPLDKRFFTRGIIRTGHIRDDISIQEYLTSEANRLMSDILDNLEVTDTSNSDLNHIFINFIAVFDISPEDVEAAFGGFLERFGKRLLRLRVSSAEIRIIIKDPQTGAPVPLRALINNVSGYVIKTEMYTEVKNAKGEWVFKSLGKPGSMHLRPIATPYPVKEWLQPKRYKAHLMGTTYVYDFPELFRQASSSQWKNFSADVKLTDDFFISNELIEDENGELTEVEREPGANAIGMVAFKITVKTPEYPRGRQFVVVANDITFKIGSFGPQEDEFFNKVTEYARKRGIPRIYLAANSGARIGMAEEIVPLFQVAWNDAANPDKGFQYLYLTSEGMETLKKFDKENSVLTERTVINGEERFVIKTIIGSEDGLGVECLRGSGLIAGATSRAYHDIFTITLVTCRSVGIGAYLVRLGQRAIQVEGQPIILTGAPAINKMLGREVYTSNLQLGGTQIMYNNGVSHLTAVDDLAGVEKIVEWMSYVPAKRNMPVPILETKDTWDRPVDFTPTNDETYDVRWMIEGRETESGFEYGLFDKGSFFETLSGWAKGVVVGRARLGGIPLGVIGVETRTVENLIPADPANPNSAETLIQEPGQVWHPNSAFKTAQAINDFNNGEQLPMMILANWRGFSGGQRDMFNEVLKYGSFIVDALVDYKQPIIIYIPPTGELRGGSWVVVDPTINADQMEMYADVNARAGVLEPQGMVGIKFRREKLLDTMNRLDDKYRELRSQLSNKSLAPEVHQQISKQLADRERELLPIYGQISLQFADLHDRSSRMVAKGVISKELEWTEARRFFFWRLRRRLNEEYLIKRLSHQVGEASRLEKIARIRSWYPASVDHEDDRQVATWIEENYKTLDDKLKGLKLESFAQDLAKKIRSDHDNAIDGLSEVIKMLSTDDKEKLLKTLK

The term IC50 denotes the midpoint of a concentration-inhibition curve. For orientation: MIC means the lowest concentration that inhibits growth of the organism. For `CCNC(=O)C(C)(C)n1c(=O)c2c(C)c(-n3nccn3)sc2n(C[C@H](OC2CCOCC2)c2cc(F)ccc2OC)c1=O` [Compound I-22, (R)—N-ethyl-2-(1-(2-(5-fluoro-2-methoxyphenyl)-2-((tetrahydro-2H-pyran-4-yl)oxy)ethyl)-5-methyl-2,4-dioxo-6-(2H-1,2,3-triazol-2-yl)-1,4-dihydrothieno[2,3-d]pyrimidin-3(2H)-yl)-2-methylpropanamide], the concentration for half-maximal inhibition (IC50) in assay [1] (Table 2a) lay within 1 to 5 nM; in [1] (Table 2b, additional results), 1 to 5 nM. Moreover, the MIC in assay [2] (Table 3a) was 0.25 to 1 µg/mL (≈ 0.407 to 1.63 µM); in assay [2] (Table 3b (additional results)), 1.01 to 2 µg/mL (≈ 1.64 to 3.25 µM); in [5] (Table 3a) it was 0.25 to 1 µg/mL (≈ 0.407 to 1.63 µM); in assay [5] (Table 3b (additional results)), 0.25 to 1 µg/mL (≈ 0.407 to 1.63 µM); in assay [6] (Table 3a), 0.25 to 1 µg/mL (≈ 0.407 to 1.63 µM); in assay [6] (Table 3b (additional results)) it was 0.25 to 1 µg/mL (≈ 0.407 to 1.63 µM). The IC90 in assay [3] (setting [12]) was 2 µg/mL (≈ 3.25 µM); in assay [3] (setting [13]), 10 µg/mL (≈ 16.3 µM); in assay [4] (setting [12]), 2 µg/mL (≈ 3.25 µM); in assay [4] (setting [13]) it was 2 µg/mL (≈ 3.25 µM); in [7] (setting [12]), 0.4 µg/mL (≈ 0.651 µM); in assay [7] (setting [13]), 0.4 µg/mL (≈ 0.651 µM). For the same molecule, the IC90 in assay [8] (setting [12]) was 2 µg/mL (≈ 3.25 µM); in [8] (setting [13]), 2 µg/mL (≈ 3.25 µM); in assay [9] (setting [12]) it was 0.08 µg/mL (≈ 0.13 µM); in [9] (setting [13]), 0.08 µg/mL (≈ 0.13 µM); in assay [10] (setting [12]), greater than 50 µg/mL; in assay [10] (setting [13]) it was greater than 50 µg/mL.
`COc1ccc(F)cc1[C@H](Cn1c(=O)n([C@@H](C)C(=O)N2CCCC2)c(=O)c2c(C)c(-n3nccn3)sc21)OC(C)C` [Compound I-39, 1-((R)-2-(5-fluoro-2-methoxyphenyl)-2-isopropoxyethyl)-5-methyl-3-((S)-1-oxo-1-(pyrrolidin-1-yl)propan-2-yl)-6-(2H-1,2,3-triazol-2-yl)thieno[2,3-d]pyrimidine-2,4(1H,3H)-dione]: the IC50 in assay [1] (Table 2a) is 1 to 5 nM; in [1] (Table 2b, additional results) it was 1 to 5 nM. In addition, the MIC is 0.25 to 1 µg/mL (≈ 0.428 to 1.71 µM) in [2] (Table 3a); 1.01 to 2 µg/mL (≈ 1.73 to 3.42 µM) in assay [2] (Table 3b (additional results)); 0.25 to 1 µg/mL (≈ 0.428 to 1.71 µM) in assay [5] (Table 3a); 0.25 to 1 µg/mL (≈ 0.428 to 1.71 µM) in assay [5] (Table 3b (additional results)); 0.25 to 1 µg/mL (≈ 0.428 to 1.71 µM) in [6] (Table 3a); 0.25 to 1 µg/mL (≈ 0.428 to 1.71 µM) in [6] (Table 3b (additional results)). The IC90 in assay [3] (setting [12]), in assay [3] (setting [13]), in assay [4] (setting [12]), in [4] (setting [13]), in [7] (setting [12]) and in [7] (setting [13]) was 0.08 µg/mL (≈ 0.137 µM) each time. Also, the IC90 in [8] (setting [12]) was 0.4 µg/mL (≈ 0.684 µM); in assay [8] (setting [13]), 0.4 µg/mL (≈ 0.684 µM); in assay [9] (setting [12]) it was 0.08 µg/mL (≈ 0.137 µM); in [9] (setting [13]) it was 0.08 µg/mL (≈ 0.137 µM); in assay [11] (setting [12]) it was 10 µg/mL (≈ 17.1 µM); in [11] (setting [13]), greater than 50 µg/mL. Besides, the IC90 in assay [10] (setting [12]) and in [10] (setting [13]) was greater than 50 µg/mL throughout.
In the case of `COc1ccc(F)cc1[C@H](Cn1c(=O)n(C(C)C(=O)N2CCCC2)c(=O)c2c(C)c(-n3nccn3)sc21)OC(C)C` (stereo partly drawn) [Compound I-40, 1-((R)-2-(5-fluoro-2-methoxyphenyl)-2-isopropoxyethyl)-5-methyl-3-(1-oxo-1-(pyrrolidin-1-yl)propan-2-yl)-6-(2H-1,2,3-triazol-2-yl)thieno[2,3-d]pyrimidine-2,4(1H,3H)-dione], the IC50 in [1] (Table 2a) was 1 to 5 nM; in assay [1] (Table 2b, additional results) it was 1 to 5 nM. Also, the MIC in [2] (Table 3a) was in the range of 0.25 to 1 µg/mL (≈ 0.428 to 1.71 µM); in assay [2] (Table 3b (additional results)), 1.01 to 2 µg/mL (≈ 1.73 to 3.42 µM); in [5] (Table 3a), 0.25 to 1 µg/mL (≈ 0.428 to 1.71 µM); in assay [5] (Table 3b (additional results)), 0.25 to 1 µg/mL (≈ 0.428 to 1.71 µM); in assay [6] (Table 3a), 0.25 to 1 µg/mL (≈ 0.428 to 1.71 µM); in assay [6] (Table 3b (additional results)), 0.25 to 1 µg/mL (≈ 0.428 to 1.71 µM). Besides, the IC90 came out at 0.08 µg/mL (≈ 0.137 µM) in assay [3] (setting [12]); 0.08 µg/mL (≈ 0.137 µM) in assay [3] (setting [13]); 0.08 µg/mL (≈ 0.137 µM) in assay [4] (setting [12]); 0.08 µg/mL (≈ 0.137 µM) in assay [4] (setting [13]); 0.4 µg/mL (≈ 0.684 µM) in assay [7] (setting [12]); 0.08 µg/mL (≈ 0.137 µM) in [7] (setting [13]). Moreover, the IC90 in [8] (setting [12]) is 0.4 µg/mL (≈ 0.684 µM); in assay [8] (setting [13]), 0.4 µg/mL (≈ 0.684 µM); in [9] (setting [12]), 0.08 µg/mL (≈ 0.137 µM); in [9] (setting [13]), 0.08 µg/mL (≈ 0.137 µM); in assay [11] (setting [12]), greater than 50 µg/mL; in assay [11] (setting [13]) it was greater than 50 µg/mL. Besides, the IC90 in [10] (setting [12]) was 10 µg/mL (≈ 17.1 µM); in assay [10] (setting [13]), greater than 50 µg/mL.

For the origin of these results see patent US10800791B2, “Triazole ACC inhibitors and uses thereof” (Gilead Apollo, LLC, priority 2015, dated 2020).
